The text below walks through data of PMC12136788.

This is one part of the list.

T1: UNK ZnF1-3 (human, UniProt Q9C0B0 31-174)
T1 sequence: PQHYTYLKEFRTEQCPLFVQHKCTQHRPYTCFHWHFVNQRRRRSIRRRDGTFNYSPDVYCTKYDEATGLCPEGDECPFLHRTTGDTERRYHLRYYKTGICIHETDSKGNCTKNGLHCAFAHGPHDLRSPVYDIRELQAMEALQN

B1: chr17:65740002:65740003:+_ENSG00000130935_ENST00000581375|hu_hu|hu_hu_hu_mus_False|38_88 (ssRNA)
RNA: GGGAGUUCUACAGUCCGACGAUCAACAAAUCUUUCUUCCCUGGACGCAAGAGUUCAUUCAUAUUAAAAAAAAUAUAUAUCCAUCAAGUUAGGUGUGUAAUAUCAGACUUUACUCCCAGCACUUUGGGAGGUGGAUCUCUGAGUCAACAGAGGAUUGAGCAUCA
B2: chr2:30816663:30816664:-_ENSMUSG00000026849_ENSMUST00000028200|mus_mus|motif|central (ssRNA)
RNA: GGGAGUUCUACAGUCCGACGAUCUCUGAUGCACAUUUUCAGGUGCUUGUACUCCAGGGGCAGGAAGGGGACAAAAUAAUCGGUGAGGUUCCGGUCAAUGAGGCUGCUGUGCCAGAAGCCACUGUUCUUGUUAUUGAAGACCGACAACAGAGGAUUGAGCAUCA
B3: chr7:54823571:54823572:-_ENSG00000132432_ENST00000352861|hu_mus|hu_hu_hu_mus_False|1_98 (ssRNA)
RNA: GGGAGUUCUACAGUCCGACGAUCUCCCAUGAUAGCAAAUCCUAUUGCUGUAGCCAUGGCAAUCUUCUGGAAUUCUUUUCUGUCGGGUUUGGUGCAUCUUUUAACCAGCCGAAUUGAGUCCUUUACAAACUGCCGGCUUGGCUCCAACAGAGGAUUGAGCAUCA
B4: chr17:49627581:49627582:-_ENSMUSG00000040260_ENSMUST00000057610|mus_mus|FALSE|FALSE (ssRNA)
RNA: GGGAGUUCUACAGUCCGACGAUCAUUCUCGUGUUGCCGGAGUUUAUCAAUCACUGGCUGGAUCCCCAGCAUCAGGAACUCAUACCGGAGAUGCAGGCGGAAUUCCAGGUUAUCCUCUCCAGCGCCAGCAUUGAGGACAGCAUUCAACAGAGGAUUGAGCAUCA
B5: chr7:31145180:31145181:-_ENSMUSG00000036957_ENSMUST00000046351|mus_hu|FALSE|FALSE (ssRNA)
RNA: GGGAGUUCUACAGUCCGACGAUCGAGCAGGGGCAGGCGGGAGAAGAGUGGGUCGGGUGGGAUUGUGGUCAGGCGGUUGGAGGUCAUGUCCAGCCGGGCCAGCUUGUGCAGGCGGGAAAAAGCGCCGGCGGGCACAGAAGCCAGCAACAGAGGAUUGAGCAUCA
B6: chr3:9412954:9412955:+_ENSG00000134077_ENST00000452837|hu_mus|hu_hu_hu_mus_False|1_28 (ssRNA)
RNA: GGGAGUUCUACAGUCCGACGAUCGGUUGAUAUCUCUUCUUUGAUGGCUGGAUUUUCAUAAUAGUCCAAGAUAUGUGAAUCUGAAGUGCUGCUGGCAUGCUUUUUCUUAACAUUUCUCUCAUCUGCUUUGUCUCCUUGUCCAUUCAACAGAGGAUUGAGCAUCA
B7: chr4:99801976:99801977:-_ENSG00000151247_ENST00000280892|hu_hu|FALSE|FALSE (ssRNA)
RNA: GGGAGUUCUACAGUCCGACGAUCAACACAUUUAUGGAUUCUGGGGAUGUGUACUGUAAUUCUUUGAUUGGGAUAGUGGAAACUCUAGCCAAAAAAAAAAAAAAAAAUGAACACAGAAGUACAAGACAAAGGCGAAUGAGACUUCAACAGAGGAUUGAGCAUCA
B8: chr7:65705844:65705845:+_ENSG00000169902_ENST00000304842|hu_mus|hu_hu_hu_mus_False|78_78 (ssRNA)
RNA: GGGAGUUCUACAGUCCGACGAUCAAACGGAUCUUUGUUACAUAAAUAAGGUGCCGGCUCCCCAUGCUUAACAAUGACCUCCAGAAGGAAGGCUUGCAUGGCAGAAUCUAGCACUUCAUCUGUGACACCCGCCUCAUCCAAGCGCAACAGAGGAUUGAGCAUCA
B9: chr7:7679991:7679992:-_ENSG00000106399_ENST00000396682|hu_hu|hu_hu_hu_mus_False|18_58 (ssRNA)
RNA: GGGAGUUCUACAGUCCGACGAUCUGGGAUGAAUCUUUUCCAGCUUCCCCACGAAGCACACGGGCCGGUCGAUAUACUGAGCUAGCAUGCUGGCGUUGACGCGCGCUUUGGGGAGCUCCAUCAUGUCCUCCAUGAUUCUGCCGCCAACAGAGGAUUGAGCAUCA
B10: 72251890_72264378_143_CDS_ENSG00000157107_ENST00000430046|human|control|control (ssRNA)
RNA: GGGAGUUCUACAGUCCGACGAUCCUGUCCAUGUUUCAUAUUAUGGUAGAGGACAUCAAAGCCACUAUUUUUUUCCCCCCAAAAAUUCUCGACGAAAUACGCCAUGACCAUCGUGCCGCCGCCGCGCCGGGUUCCGCGUCCGCGCAACAGAGGAUUGAGCAUCA
B11: chr10:36853299:36853300:-_ENSMUSG00000069662_ENSMUST00000092584|mus_mus|FALSE|FALSE (ssRNA)
RNA: GGGAGUUCUACAGUCCGACGAUCUAUUAACAUUUUUUUUUCCAUUAGAAAACAACAGGAUGUACAAAACUUUGGAUGAAAAGUAUGUCAAAUUGCAUUUAGCCACUUGGAGGAAAAUCCACCGCUCCAUCAAUACCACCCAAACAACAGAGGAUUGAGCAUCA
B12: 155448232_155448352_4847_CDS_ENSG00000116539_ENST00000392403|human|control|control (ssRNA)
RNA: GGGAGUUCUACAGUCCGACGAUCACCAUAGGCCAUCUCAGGAGGAACACUGGGGUAGGUACUCAUGGAAAGGAGGGGAGUCCUGCUGGUUGUAAGAAAGGCCUCCUGUCGAAGUAGCUUAUGCUUUUUCUUAUGGUAUUUGGCCAACAGAGGAUUGAGCAUCA
B13: 169710605_169710725_1072_CDS_ENSG00000008952_ENST00000337002|human|control|control (ssRNA)
RNA: GGGAGUUCUACAGUCCGACGAUCUCCACUACUGUGCUGGGAUCGAUCAUCUUCCCUCCUGUCACUGUCCGUGUCUGAAUGCCGUUCUCCCCCCGAGCCUUCUGUUCCAUGAUUUCCUGGUCCUACUUUCCCCUCCUCAUCUUCCAACAGAGGAUUGAGCAUCA
B14: chr2:103900078:103900079:+_ENSMUSG00000027180_ENSMUST00000028603|mus_hu|FALSE|FALSE (ssRNA)
RNA: GGGAGUUCUACAGUCCGACGAUCCUCCUCCUCCUCUUCUUCCAUCUCUUCAUAUUCAUCAGGACCCAUUUCCAAUCGGGCUAUAGACACCCUGAAUGUUGGACAUGCCAUAUGGAAUCGGGGAAUGGCAACAUUAAAGAUCUUCAACAGAGGAUUGAGCAUCA
B15: chr14:78183846:78183847:+_ENSG00000119705_ENST00000557342|hu_hu|hu_hu_hu_mus_False|28_108 (ssRNA)
RNA: GGGAGUUCUACAGUCCGACGAUCUCUGUCUCAAAAAUCUUCAUCAGAUGUUUGAGCUCCGUGCAAAGCCUUUGCUCUUUGAGCUUGAACGUGGAUCUAUGGGAGGGCUAUAAUAUGCAGAAAAGGUAAUUUUUUUUUUAAAGACAACAGAGGAUUGAGCAUCA
B16: chr2:162087991:162087992:+_ENSG00000136560_ENST00000392749|hu_mus|FALSE|FALSE (ssRNA)
RNA: GGGAGUUCUACAGUCCGACGAUCCUUUCCUGGGGAAUCCAGUGAGGGAAAAGGUGCGUCAGGCGGGUCUUGAAGUGGGAACGUAUUUACAUAGAACACAUUGUGGUCUCCAGCUGGCAAACACGUCGCUCUAAGAUUUGAGGGCAACAGAGGAUUGAGCAUCA
B17: chr4:140265382:140265383:+_ENSG00000164134_ENST00000296543|hu_hu|FALSE|FALSE (ssRNA)
RNA: GGGAGUUCUACAGUCCGACGAUCUUCUCUAUAGAGACCUGCUUCCCGAAGAACUUGAUUCUGAUAUAAGAGUAGUUCACUAUAUUCAUAAUCCACCUUGUCAGGGGAUGUCUGUUGUGUUUUCCUAAAUUCUUCUAAAAUCUUCAACAGAGGAUUGAGCAUCA
B18: chr8:127197416:127197417:-_ENSMUSG00000037300_ENSMUST00000118134|mus_hu|motif|central (ssRNA)
RNA: GGGAGUUCUACAGUCCGACGAUCUUUGGCGACUUUGCUAAAGGCCUCUGAACCAGGGGCUGUCAUAGCUUCAAAGUCGACGGACUUCCCUUUGGGAAUUUUUCCUGCUACUUCUUUUCCACUUGCCAUCAGUGCUCCCACGAUCAACAGAGGAUUGAGCAUCA
B19: 93805653_93805773_2646_3pUTR_ENSMUSG00000059474_ENSMUST00000107854|mouse|control|control (ssRNA)
RNA: GGGAGUUCUACAGUCCGACGAUCGUUUCUGUACAAACAGUUAAAUGGGCUGCAAUAAAACGUCAGCGAGCACAAUUAAUGACCCCUUCCGUGAUCUACAUGGUGAUGAGCCCUCUGUGAGGGGUUCAGUUGCAUAUUUUCGCACAACAGAGGAUUGAGCAUCA
B20: 155324285_155324405_7610_CDS_ENSG00000116539_ENST00000392403|human|control|control (ssRNA)
RNA: GGGAGUUCUACAGUCCGACGAUCUCGGCAGAUCCCAUUCCAACGGGUAUAUAAUGAUGCUGAGUGAAUAUUAUCACUGGUGUGCUUUACUUCCUCCUGUUUUUGACGAAUCUUCUCCCAGUUUCGGACCAAGAAUACAUGAUGCAACAGAGGAUUGAGCAUCA
B21: chr14:78183846:78183847:+_ENSG00000119705_ENST00000557342|hu_hu|hu_hu_hu_mus_False|38_58 (ssRNA)
RNA: GGGAGUUCUACAGUCCGACGAUCUCUCAGAAAUCUUUCUUCAUCAGAUGUUUGAGCUCCGUGCAAAGCCUUUGCUCUUCUAGUGUGAACGUGGAUCUUUACUCCAUAAAGCACUGUCAGAAAAGGUAAUUUUUUUUUUAAAGACAACAGAGGAUUGAGCAUCA
B22: chr8:126034020:126034021:+_ENSG00000104549_ENST00000265896|hu_hu|motif|central (ssRNA)
RNA: GGGAGUUCUACAGUCCGACGAUCCUUAAAGCAAAAAUACACGGCAUAGAUUGCAACAGCAAAGAAGUGUCCAAUUAAAACGGGAGGGUUAGGAGACAAUACAGAAAGCAGCCCAACAGGACCCGCAACACAUUCGCCACCAAGCAACAGAGGAUUGAGCAUCA

The target of the assay is T1, UNK ZnF1-3. Put plainly: nsRBNS (natural sequence RNA bind-n-seq); RBNS binding buffer (assumed for nsRBNS): 25 mM Tris pH 7.5, 150 mM KCl, 3 mM MgCl2, 0.01% Triton X-100, 500 ug/ml BSA, 20 U/ml SUPERase-In, 4 C; UNK is unkempt and MSI1 is Musashi-1; names of the RNAs are library labels; protein concentration not given here; high values mean tight binding.
As for B1, the binding signal was determined as 1.28 enrichment R.

B2 displayed a binding signal of 1.09 enrichment R.

In turn, B3 displayed a binding signal of 0.639 enrichment R.

B4 yielded a binding signal of 1.2 enrichment R.

As for B5, the binding signal stood at 1.81 enrichment R.

As for B6, the binding signal was found to be 0.404 enrichment R.

B7 returned a binding signal of 2.58 enrichment R.

Molecule B8 displayed a binding signal of 0.268 enrichment R.

B9 showed a binding signal of 0.939 enrichment R.

On to B10, for which the binding signal stood at 1.67 enrichment R.

Regarding B11, the binding signal came to 1.49 enrichment R.

In the case of B12, the binding signal was 1.28 enrichment R.

In turn, B13 had a binding signal of 0.815 enrichment R.

Take B14: the binding signal was found to be 0.677 enrichment R.

B15: the binding signal stood at 1.61 enrichment R.

Molecule B16 gave a binding signal of 1.44 enrichment R.

For the molecule B17, the binding signal was found to be 0.811 enrichment R.

On to B18, for which the binding signal was 0.516 enrichment R.

The molecule B19 registered a binding signal of 0.85 enrichment R.

Take B20: the binding signal worked out at 0.646 enrichment R.

As for B21, the binding signal was found to be 0.619 enrichment R.

Molecule B22 came in with a binding signal of 1.79 enrichment R.
